We go through two compounds from PubChem BioAssay AID1851 (National Center for Advancing Translational Sciences (NCATS), 2009).

The structures appear in SMILES notation. What follows is the remainder of the data, with few or none of the hits. Inconclusive results are not listed. Calls of active or inactive are those of the source. Calls come from the whole dose curve; as a rule, active = well fitted curve in the direction sought with a large enough effect; inconclusive = small, poorly fitted or top-dose-only effect, or effect the other way; inactive = no such curve, though single readings can be large or run the other way.
% is set by controls: 0 for no effect and ±100 for the full control effect.

This assay has as its target Cytochrome P450 2D6 (Homo sapiens) (UniProt P10635). As to the kind of experiment: Cytochrome panel assay with activity outcomes. The following applies: recombinant CYP, pro-luciferin dealkylation, luminescence, p450-cyp2d6; at 57.1 µM (top of the series) unless noted.
UniProt P10635, sequence (P10635 whole entry, looked up): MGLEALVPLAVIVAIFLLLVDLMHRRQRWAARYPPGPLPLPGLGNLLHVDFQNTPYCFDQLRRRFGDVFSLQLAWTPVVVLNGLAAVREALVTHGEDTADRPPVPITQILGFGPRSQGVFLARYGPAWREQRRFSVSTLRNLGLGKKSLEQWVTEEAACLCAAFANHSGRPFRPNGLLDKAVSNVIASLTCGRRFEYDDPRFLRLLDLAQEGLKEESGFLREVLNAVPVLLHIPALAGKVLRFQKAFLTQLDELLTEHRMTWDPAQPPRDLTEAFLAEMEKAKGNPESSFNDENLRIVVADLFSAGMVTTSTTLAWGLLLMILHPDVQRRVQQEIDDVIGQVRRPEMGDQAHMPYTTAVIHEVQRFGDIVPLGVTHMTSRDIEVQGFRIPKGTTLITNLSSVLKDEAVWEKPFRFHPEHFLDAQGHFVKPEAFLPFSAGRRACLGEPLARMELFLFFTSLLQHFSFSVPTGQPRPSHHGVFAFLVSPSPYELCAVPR
For `COC(=O)C1=C(C)NC(C)=C(C(=O)OC)C1c1ccccc1[N+](=O)[O-]`, the activity, negative = inhibition is inactive: 11.1%.
The same measure for `CC(=O)[C@@H]1CC[C@H]2[C@H]3CC[C@H]4C[C@@H](O)CC[C@]4(C)[C@@H]3C(=O)C[C@@]12C`: inactive: -4.2% [at 25.6 µM].
